Reference: the supplement of paper PMC12645437, “Orthogonal IMiD-Degron Pairs Induce Selective Protein Degradation in Cells” (ACS Chemical Biology, 2025)
The list shows a part of the results.

target: no compound (DMSO); experiment: log2 fold change of degron read counts, EGFP-low vs EGFP+ sorted cells; higher = lower degron-EGFP level without compound (poor expression or instability); details: compound: DMSO control; 18 h
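Further: jurkat cells carrying a lentiviral library of mutant zinc finger degrons fused to EGFP plus mCherry, mCherry+ cells FACS sorted, degron abundance counted by next-generation sequencing.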

Sequence	log2 fold change of degron read counts
FECEQCGAEFTQKGNLLRHIKL	-3.56
FGCNQCGHYFTQKGNLLRHIKL	1.96
FSCNVCGANFTQKGNLLRHIKL	-1.79
FECSVCGHLFTQKGNLLRHIKL	-1
FVCPVCGAKFTQKGNLLRHIKL	-0.745
FCCEQCGACFTQKGNLLRHIKL	-1.69
FICPVCGAWFTQKGNLLRHIKL	0.926
FMCNVCGALFTQKGNLLRHIKL	0.548
LACEICGFNCTQKGNLLRHIKL	0.012
FVCDQCGATFTQKGNLLRHIKL	-2.17
FHCPQCGATFTQKGNLLRHIKL	-0.845
FACNVCGAIFTQKGNLLRHIKL	0.199
FMCSVCGHHFTQKGNLLRHIKL	-0.12
FHCEICGHVFTQKGNLLRHIKL	-1.37
FYCDVCGAAFTQKGNLLRHIKL	-1.07
FSCEICGHDFTQKGNLLRHIKL	-1.89
FICNQCGALFTQKGNLLRHIKL	0.0557
FQCSVCGHPFTQKGNLLRHIKL	-0.66
LCCPICGFWCTQKGNLLRHIKL	1.24
FKCPVCGAKFTQKGNLLRHIKL	-0.903
FYCPICGRGFTQKGNLLRHIKL	-2.93
FRCNQCGHLFTQKGNLLRHIKL	-0.00836
LTCNQCGFQCTQKGNLLRHIKL	-0.177
FNCNICGAVFTQKGNLLRHIKL	0.149
FYCPICGAFFTQKGNLLRHIKL	1.15

Sequence	log2 fold change of degron read counts
FMCEVCGADFTQKGNLLRHIKL	-1.53
FICNQCGHRFTQKGNLLRHIKL	-0.157
FQCEICGAKFTQKGNLLRHIKL	-1.32
FECDQCGAWFTQKGNLLRHIKL	-2.16
FMCPVCGAAFTQKGNLLRHIKL	-0.247
FDCNICGARFTQKGNLLRHIKL	-0.663
FACDQCGAMFTQKGNLLRHIKL	-1.19
FRCDQCGAKFTQKGNLLRHIKL	-1.35
FSCDQCGAGFTQKGNLLRHIKL	-1.4
FECEICGRYFTQKGNLLRHIKL	-1.09
FWCDVCGADFTQKGNLLRHIKL	-1.68
FFCEICGATFTQKGNLLRHIKL	-1.95
FICEVCGAKFTQKGNLLRHIKL	-2.05
FTCPICGAWFTQKGNLLRHIKL	0.892
FVCEICGHNFTQKGNLLRHIKL	-1.9
FWCNQCGRSFTQKGNLLRHIKL	0.562
LRCNQCGFCCTQKGNLLRHIKL	0.532
FRCNQCGRSFTQKGNLLRHIKL	-0.469
FGCPICGAEFTQKGNLLRHIKL	-0.25
FTCEICGALFTQKGNLLRHIKL	-0.585
FACNQCGAYFTQKGNLLRHIKL	0.275
FRCPVCGARFTQKGNLLRHIKL	-0.212
FYCEICGRYFTQKGNLLRHIKL	0.0422
FCCEICGAAFTQKGNLLRHIKL	-0.98
LQCNQCGFHCTQKGNLLRHIKL	0.312
